In all, about 110,000 compounds went through this assay and about 230 (0.21%) showed an effect of 50% or more. The list shows a part of the results.
target: DPAP1 (Plasmodium falciparum, UniProt Q8IIJ9); assay: primary screen, percent inhibition; read by cleavage of a fluorogenic dipeptide substrate; higher = more effect of the substance; design: species or system P. falciparum D10 trophozoite lysates; single well
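Further: 30 min substrate incubation versus DMSO and 10 µM JCP410 controls.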

DPAP1, sequence (Q8IIJ9 whole entry, looked up): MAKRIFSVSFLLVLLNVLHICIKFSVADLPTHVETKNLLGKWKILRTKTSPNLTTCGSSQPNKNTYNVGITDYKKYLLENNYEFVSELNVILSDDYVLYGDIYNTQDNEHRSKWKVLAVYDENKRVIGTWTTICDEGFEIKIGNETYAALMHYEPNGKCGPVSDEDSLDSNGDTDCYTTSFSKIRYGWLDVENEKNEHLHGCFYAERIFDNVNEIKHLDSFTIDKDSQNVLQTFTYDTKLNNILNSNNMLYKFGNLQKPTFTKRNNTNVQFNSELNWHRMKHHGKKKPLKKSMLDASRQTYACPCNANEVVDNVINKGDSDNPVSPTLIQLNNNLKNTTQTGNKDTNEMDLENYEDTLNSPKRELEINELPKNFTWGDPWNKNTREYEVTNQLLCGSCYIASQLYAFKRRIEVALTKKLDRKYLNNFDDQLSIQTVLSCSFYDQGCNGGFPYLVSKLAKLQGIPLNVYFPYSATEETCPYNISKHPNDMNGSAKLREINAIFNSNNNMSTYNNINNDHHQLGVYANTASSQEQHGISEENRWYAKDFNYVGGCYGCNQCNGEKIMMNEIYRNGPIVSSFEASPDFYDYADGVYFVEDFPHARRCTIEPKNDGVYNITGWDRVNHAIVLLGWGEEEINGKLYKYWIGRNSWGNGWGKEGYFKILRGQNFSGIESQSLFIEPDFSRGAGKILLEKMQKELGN

Point of comparison: CC(C)NCC(O)c1ccc(C2CCCC2)cc1 (centres unmarked), “% Inhibition @ 10 uM” value -3.9%. Against it:
- Cc1ccc(OCCCCCN2CCOCC2)cc1 — higher, -0.546%
- Cc1cccc(NC(=O)C2CCCN2S(=O)(=O)c2cccc3nsnc23)n1 (centres unmarked) — higher, -0.465%
- CN(C)c1ccc(-c2c(C#N)c(N)nc(S)c2C#N)cc1 — higher, 7.55%
- CCC(=O)Nc1ccc(C(=O)c2ccccc2)cc1 — higher, 3.24%
- Cc1cc(C)c(N2C(=O)C3C4C=CC(C)(O4)C3C2=O)c(C)c1 (centres unmarked) — higher, 2.08%
- CCOc1ccc(C(=O)C2=C(O)C(=O)N(CCc3ccccc3)C2c2ccncc2)cc1 (centres unmarked) — higher, 3.57%
- Cn1c(C(C)(O)C(O)c2ccccc2)nc2ccccc21 (centres unmarked) — higher, -2.09%
- NC(=O)c1cc(NC(=O)c2ccc([N+](=O)[O-])cc2)cc(C(N)=O)c1 — higher, 2.54%
- CCCN1COc2ccc3c(C)c(CC)c(=O)oc3c2C1 — higher, 2.09%
- O=C(Nc1cccnc1Cl)c1cnn2c(C(F)(F)F)cc(-c3cccs3)nc12 — higher, -1.69%
- Cn1nc(C2CC2)cc1C(=O)NCCc1ccccc1 — higher, -0.0108%
- O=C(Nc1cc(Cl)ccc1Cl)c1ccc(Br)o1 — higher, -0.687%
- Cc1ccc2c(c1)c(/C=C1/C(=N)N3C=CSC3=NC1=O)c(C)n2Cc1ccc2c(c1)OCO2 — higher, 5.44%
- CCc1ccc(C2N=C3Oc4ccccc4C=C3C(=O)N2)cc1 (centres unmarked) — higher, 1.68%
- O=C(NC(=O)c1ccc(Cl)cc1)Nc1cccc(OC(F)F)c1 — higher, 3.5%
- CCOc1cc(C2C3=C(O)CC(c4ccc(OC)cc4)CC3=NC(C)=C2C(=O)OC)ccc1O (centres unmarked) — higher, -0.053%
- COc1cc(-c2nnc3n2N=C(c2ccccc2)CS3)cc(OC)c1OC — higher, 2.89%
- CC(C)c1ccc(/C=C2\N=C(c3ccc(F)cc3)OC2=O)cc1 — lower, -4.46%
- COc1ccc2c(c1)C(=O)N(c1ccc(C)cc1)C(=O)/C2=C/N1CCOCC1 — higher, 4.74%
- Cc1ccc(Nc2ccccc2C(=O)N2CCOCC2)c(C)c1 — higher, 1.67%
- CC(=O)c1cc(-c2ccc(F)cc2)n(CC(=O)NCc2cccs2)c1C — higher, 3.07%
- CC(=O)N[C@H]1[C@H](Oc2nc3cc(C)ccc3o2)O[C@H](CO)[C@@H](O)[C@@H]1O — higher, 1.64%
- Clc1cccc(CN2CCN(c3ccccn3)CC2)c1Cl — higher, 0.605%
- CC12CN3CC(C)(CN(C1)C3(C)CCC(=O)O)C2=O (centres unmarked) — lower, -4.21%
- CC[C@@H](C)[C@H](NC(=O)c1cccnc1)C(=O)N[C@@H](CCc1ccccc1)C(=O)COCc1ccccc1 — higher, 3.66%
- CCOc1ccc(CCNc2ccc3nnc(-c4ccccc4)n3n2)cc1OCC — lower, -6.68%
- CC(C)(C)NCc1nc(-c2ccccc2)no1 — higher, -1.81%
- COc1cc2c(C(=O)N3CCCCCC3)cn(CC(C)C)c(=O)c2cc1OC — higher, 0.505%
- CN(Cc1ccco1)S(=O)(=O)c1nnc(NC(=O)C2CCCCC2)s1 — higher, -1.26%
- O=C(NCCCN1CCCC1=O)c1nnc(-c2ccc3c(c2)OCO3)o1 — higher, 1.23%
- Cc1cc(Cl)ccc1OCC(=O)NCc1ccccc1 — higher, -3.37%
- CC1=CC2=NC(=O)/C(=C\c3ccc(OCc4ccc5c(c4)OCO5)cc3)C(=N)N2O1 — higher, 3.63%
- Cn1c(C(=O)NCCN2CCOCC2)cc2sccc21 — lower, -4.85%
- COc1ccccc1-n1c(N)c(C#N)c2nc3ccccc3nc21 — higher, 3.31%
- COc1ccc(NC(=O)c2ccc(N(Cc3ccc(Cl)cc3)S(C)(=O)=O)cc2)c(OC)c1 — higher, 2.02%
- c1ccc(N2CCN(Cc3ccco3)CC2)cc1 — higher, -0.0404%
- CCC1CCCCN1C(=O)c1sc2nc(C)nc(N(CC)CC)c2c1C (centres unmarked) — higher, 5.85%
- CC(=O)Nc1nc2n(n1)C(c1ccccc1)C=C(c1ccccc1)N2 (centres unmarked) — higher, 2.56%
- CCN(CC)S(=O)(=O)c1cc(C(=O)Nc2ccccc2OC)ccc1C — higher, -3.55%
- O=C(O)CNc1nc(Oc2ccccc2)nc(Oc2ccccc2)n1 — higher, -2.72%
- COc1cccc(CNCc2c(C(=O)O)c(C)n(Cc3ccc(Cl)cc3)c2C)c1OC — higher, -1.92%
- CC(C)NC(=S)N(CCc1ccncc1)C(C)C — higher, 5.47%
- CCCNC(=O)c1oc2ccc3c(c2c1C)C(=O)CC(C)(c1ccc(F)cc1)O3 (centres unmarked) — higher, 2.84%
- Cc1ccc(C(=O)N/C(=C\c2cccs2)C(=O)N2CCN(C)CC2)cc1C — higher, -0.968%
- c1ccc(CN2CCc3ccccc3C2)nc1 — lower, -4.14%
- Fc1ccc2[nH]c3c(N4CCOCC4)ncnc3c2c1 — higher, -1.85%
- O=C1NC(=O)/C(=C\c2ccc(-c3ccc(Cl)cc3)o2)S1 — higher, 6.08%
- CC(=O)Nc1ccc(NS(=O)(=O)c2ccc3c(c2)OCCO3)cc1 — lower, -7.5%
- CCCCNC(=O)C1CCC(CNS(=O)(=O)c2cccc3nsnc23)CC1 (centres unmarked) — lower, -4.34%
- CC(C)NC(=O)c1cc(-c2ccc(Cl)c(Cl)c2)on1 — higher, -3.77%
- CCCc1nc2c3ccccc3nc(NCc3ccccc3)n2n1 — higher, 2.6%
- Cc1ccc(S(=O)(=O)NCC2CCN(S(=O)(=O)c3ccc(C)cc3)CC2)cc1 — higher, 3.33%
- Cc1nnc2n1N=CC=C(c1ccccc1)S2 — higher, -3.5%
- CCOC(=O)c1c(C)[nH]c(C)c1S(=O)(=O)NCc1ccc(C)o1 — higher, 2.09%
- COc1cc(CNC(=O)c2ccc(Cn3nc(C)c(Cl)c3C)o2)cc(OC)c1 — higher, 0.317%
- CCN(Cc1ccccc1)Cc1ccc2c(c1)c1ccccc1n2CC — lower, -6%
- CCCCCCCC(=O)c1c(C)[nH]c(C(=O)OCC)c1C — lower, -4.31%
- Cc1ccccc1C(=O)N1CCC(C(=O)NC(C)C)CC1 — lower, -5.32%
- Cc1cc(Cl)ccc1-n1nnnc1SCc1nc2ccccc2[nH]1 — higher, 2.17%
- c1ccc(NCn2nnc3ccccc32)nc1 — higher, 3.32%
- Cc1cccc(C(=O)Nc2ccc(S(=O)(=O)Nc3cnc4ccccc4n3)cc2)c1 — higher, -3.26%
- CC1=C(C)CC(C(=O)Nc2ccccc2F)C(C(=O)O)C1 (centres unmarked) — higher, 2.5%
- O=C(Nc1ccccc1)c1ccc(COc2ccccc2)cc1 — higher, -0.312%
- O=c1oc(-c2cccs2)nc2sc3c(c12)CCC3 — higher, -1.5%

— PMC6919601, “Identification of Plasmodium dipeptidyl aminopeptidase allosteric inhibitors by high throughput screening” (PLoS ONE, 2019)
